We go through 89 molecules from PMC4336329 (PLoS ONE, 2015).

In all, about 310,000 compounds went through this assay and about 2,200 (0.71%) showed an effect of 50% or more. Effects have a minus sign here. The list shows a part of the results.

In the assay the target is human ether-à-go-go-related gene (hERG) potassium channel (human, UniProt Q12809). Put plainly: primary screen, population patch clamp on CHO cells stably expressing hERG.
Sequence of human ether-à-go-go-related gene (hERG) potassium channel (Q12809 whole entry, looked up): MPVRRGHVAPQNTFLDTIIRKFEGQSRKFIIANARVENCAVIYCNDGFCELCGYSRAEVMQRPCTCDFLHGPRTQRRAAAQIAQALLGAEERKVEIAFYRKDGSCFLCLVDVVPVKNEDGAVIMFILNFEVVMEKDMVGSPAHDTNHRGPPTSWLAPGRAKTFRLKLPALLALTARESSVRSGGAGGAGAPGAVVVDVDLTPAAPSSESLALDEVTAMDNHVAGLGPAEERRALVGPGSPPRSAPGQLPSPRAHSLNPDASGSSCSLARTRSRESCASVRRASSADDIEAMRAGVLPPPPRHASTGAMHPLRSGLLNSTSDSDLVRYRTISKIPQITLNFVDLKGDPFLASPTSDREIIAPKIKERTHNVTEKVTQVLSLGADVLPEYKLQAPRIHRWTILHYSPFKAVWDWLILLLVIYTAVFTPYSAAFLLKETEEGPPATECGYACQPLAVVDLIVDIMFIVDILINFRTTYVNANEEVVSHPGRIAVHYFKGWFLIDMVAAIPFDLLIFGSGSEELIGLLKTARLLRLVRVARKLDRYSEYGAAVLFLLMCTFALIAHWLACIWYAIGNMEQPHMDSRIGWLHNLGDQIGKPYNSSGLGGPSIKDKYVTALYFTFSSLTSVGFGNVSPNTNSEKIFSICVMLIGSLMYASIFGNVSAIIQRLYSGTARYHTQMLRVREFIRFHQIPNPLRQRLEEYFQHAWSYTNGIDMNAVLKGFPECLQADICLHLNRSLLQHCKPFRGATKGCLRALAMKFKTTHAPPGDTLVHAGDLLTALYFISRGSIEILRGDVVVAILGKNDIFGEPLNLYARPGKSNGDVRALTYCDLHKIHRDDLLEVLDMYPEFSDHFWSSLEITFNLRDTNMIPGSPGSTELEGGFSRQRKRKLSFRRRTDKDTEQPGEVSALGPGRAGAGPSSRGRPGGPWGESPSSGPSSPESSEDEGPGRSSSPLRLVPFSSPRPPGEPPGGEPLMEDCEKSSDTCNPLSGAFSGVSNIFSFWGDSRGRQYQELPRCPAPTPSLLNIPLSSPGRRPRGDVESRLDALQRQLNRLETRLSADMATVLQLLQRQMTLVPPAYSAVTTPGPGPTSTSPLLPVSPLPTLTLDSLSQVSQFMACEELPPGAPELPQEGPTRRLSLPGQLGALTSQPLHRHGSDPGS
As to `CCCC(C)C(=O)Nc1nc(C)c(-c2csc(Nc3cc(OC)ccc3OC)n2)s1` (centres unmarked), the “hERG current change (%, negative = inhibition) at 1uM” value is 14.5%.

`Cc1ccc(NC(=O)CCc2c(C)nc3ncnn3c2C)cc1`: the “hERG current change (%, negative = inhibition) at 1uM” value is recorded as 5.78%. Consider `Cc1cc(Cl)ccc1NNC(=O)c1snnc1C`, for which the “hERG current change (%, negative = inhibition) at 1uM” value stood at 7.02%. For `COC(=O)CSc1nc(NC(C)C)nc(N2CCOCC2)n1` the value was -1.9%; for `Cn1c(=O)c2c(SCC(=O)N3CCOCC3)nc(C3CCCCC3)nc2n(C)c1=O`, 9.63%; for `COC(=O)c1ccc(C)c(NC(=O)CCSc2ccc(C)cc2)c1`, -1.11%. In the case of `CC(C)(C#N)NC(=O)C1CCCN1S(=O)(=O)c1ccc2ccccc2c1` (centres unmarked) it was 5.69%. In the case of `O=C(N/N=C/c1coc2ccccc2c1=O)c1cc(Br)c(O)c(Br)c1` it was 12.9%; in that of `Cc1ccc(OCc2cc(C(=O)N3CCCC(O)C3)no2)cn1` (centres unmarked), 5.21%; in that of `O=C(Cc1cccs1)NCc1ccc(Cl)cc1`, 8.15%. Turning to `CCCCOc1ccc(C(=O)N/C(=C/C=C/c2ccccc2)C(=O)NCCO)cc1`, the “hERG current change (%, negative = inhibition) at 1uM” value is listed as -1.05%. On to `Cc1ccccc1-n1ncc(C(C)NC(=O)c2ccco2)c1C` (centres unmarked), for which the “hERG current change (%, negative = inhibition) at 1uM” value was determined as 12.3%. For `CC(=O)c1sc(NC(=O)COc2ccc([N+](=O)[O-])cc2)nc1C` the value was 11.8%. For `C[C@@H]([C@H](O)c1ccccc1)N(C)C(=S)Nc1ccccc1` the value was 15.7%; for `Cc1ccc(CN2CCCN(Cc3ccc(Cl)cc3)S2(=O)=O)cc1`, 18.2%; for `CC(=O)Nc1ccc(NC(=O)c2ccccc2F)cc1`, 1.81%.

In the case of `O=C1NC(=S)N/C1=C/c1cc2c(cc1[N+](=O)[O-])OCO2`, the “hERG current change (%, negative = inhibition) at 1uM” value was determined as 17.2%. In the case of `O=C(NCCCn1ccnc1)C1CC(c2cccc(Br)c2)=NO1` (centres unmarked) it was -5.44%; in that of `COc1ccc(/C=C/c2n[nH]c(=O)c(C#N)c2C)cc1`, 6.14%. For `OC1/C(=C/c2ccc(F)cc2)N2CCC1CC2` (centres unmarked) the value was 8.33%; for `CC(OC(=O)CN1C(=O)c2ccccc2C1=O)C(=O)NCc1ccccc1` (centres unmarked), 9.26%.

Regarding `CCn1ccnc1CNCc1cn(-c2cc(C)ccc2C)nc1-c1ccccc1`, the “hERG current change (%, negative = inhibition) at 1uM” value is reported as -9.33%. As to `O=C(Nc1ccc(COc2ccccc2)cc1)Nc1cccc(C(=O)O)c1`, the “hERG current change (%, negative = inhibition) at 1uM” value is given as 8.02%. For `CN(Cc1cccs1)C(=O)c1cc(S(=O)(=O)N2CCOCC2)ccc1N1CCCC1`, the “hERG current change (%, negative = inhibition) at 1uM” value came to 7.03%. For `COc1ccc(OC)c(NS(=O)(=O)Cc2ccccc2)c1` the value was 4.14%; for `O=C(CSc1nnc(-c2ccc(F)cc2)o1)Nc1ccccc1N1CCOCC1`, -0.758%.

With `Cc1ccccc1NC(=O)C1CCCN1S(=O)(=O)c1cccc2cccnc12` (centres unmarked), the “hERG current change (%, negative = inhibition) at 1uM” value was -1.4%. In the case of `CCOC(=O)C1CCCN(c2nc(C)nc3c2oc2ccccc23)C1.Cl` (centres unmarked) it was 8.69%. For `COc1cc(/C=C2/NC(=O)NC2=O)cc(Br)c1OCc1ccccc1` the value was -4.73%; for `Cc1ccc(C)c(NC(=S)N2CCN(c3cccc(C(F)(F)F)c3)CC2)c1`, 14.7%. For `O=C(CN1C(=O)C2CC=C(Cl)CC2C1=O)NCc1ccccc1` (centres unmarked) the value was 1.61%; for `COc1cccc2[nH]c3c(N4CCC(C(N)=O)CC4)ncnc3c12`, 13.1%. `Cc1csc2c(NC3CCN(Cc4ccccc4)CC3)ncnc12`: the “hERG current change (%, negative = inhibition) at 1uM” value was 9.59%. On to `CCCCCC(=O)NC(=S)Nc1ccc(NC(=O)c2ccco2)cc1`, for which the “hERG current change (%, negative = inhibition) at 1uM” value came to 8.13%.

Take `O=C(CCCN=C1NS(=O)(=O)c2ccccc21)OCC(=O)N1CCc2ccccc21`: the “hERG current change (%, negative = inhibition) at 1uM” value stood at 13.1%. For the molecule `Cc1cc(NCCNC2=CC(=O)CCC2)nc2ccccc12`, the “hERG current change (%, negative = inhibition) at 1uM” value is reported as -1.44%. As to `CC(=O)NN(O)C1N(C)C(=O)N(Cc2ccccc2)C1(C)C` (centres unmarked), the “hERG current change (%, negative = inhibition) at 1uM” value is on record as 12.6%. Consider `COc1cc(OC)c(OC)cc1/C=C1/Cc2ccccc2C1=O`, for which the “hERG current change (%, negative = inhibition) at 1uM” value is on record as 10.2%. In the case of `CCCC1=NN2C(=N)/C(=C\c3cc(C)n(Cc4ccccc4)c3C)C(=O)N=C2S1` it was 10.6%; in that of `COc1cccc(NC(=O)CCc2nnc3ccc(N4CCC(C)CC4)nn23)c1`, 10.3%; in that of `CC(C)(C)NC(=O)NC(=O)COC(=O)CNC(=O)c1cc(Cl)cc([N+](=O)[O-])c1`, 8.37%. Take `CCc1nnc(NC(=O)CCC(=O)NCc2ccc(C)cc2)s1`: the “hERG current change (%, negative = inhibition) at 1uM” value was -12%.

As for `COc1ccc(S(=O)(=O)Nc2c(C)cc(C)cc2C)c2cccnc12`, the “hERG current change (%, negative = inhibition) at 1uM” value turned out to be 7.05%. For `Cc1cccc(C)c1OCC(=O)Nc1ccc2c(c1)OCCO2` the value was 13.2%; for `CC(=O)Nc1cccc(NC(=O)CCn2cnc3cc(C)c(C)cc32)c1`, -4.85%; for `CCOC(=O)COc1ccc2cc(C(=O)OCC)c(=O)oc2c1`, 1.79%. As to `S=c1[nH]nc(Cn2c(-c3ccccn3)nc3ccccc32)n1-c1ccc2c(c1)OCCO2`, the “hERG current change (%, negative = inhibition) at 1uM” value was found to be 16.3%. In the case of `CN(CC(=O)NCCc1ccccc1)S(=O)(=O)c1ccccc1` it was 10.5%; in that of `CC(C)(C)C(=O)NC(=S)Nc1ccccc1C(=O)NC1CCCCC1`, -19.3%; in that of `Cn1c(N)c(C(=O)COC(=O)CSc2ccccc2)c(=O)n(C)c1=O`, -9.75%.

Consider `COC(=O)C1=C(c2ccc(F)cc2OCc2ccccc2)C[C@@H]2CC[C@H]1N2C(=O)NC1CCCCC1`, for which the “hERG current change (%, negative = inhibition) at 1uM” value amounted to 10.7%. For the molecule `Nc1nc(-c2ccco2)nn1C(=O)c1cccnc1`, the “hERG current change (%, negative = inhibition) at 1uM” value was determined as 14.4%.

On to `COc1ccc(C(=O)Nc2ccc3nc(N4CCOCC4)sc3c2)cc1OC`, for which the “hERG current change (%, negative = inhibition) at 1uM” value worked out at 2.38%. For the molecule `CCCc1cc(=O)[nH]c(/N=C(/NC(=O)c2ccccc2)Nc2ccc3c(c2)OCCO3)n1`, the “hERG current change (%, negative = inhibition) at 1uM” value worked out at 12.1%.

Regarding `CCOC(=O)N1CCC(NC(=O)CCC(=O)N2CC(C)Oc3ccc(Cl)cc32)CC1` (centres unmarked), the “hERG current change (%, negative = inhibition) at 1uM” value stood at 3.73%. In the case of `O=C(NCC1CCN(Cc2ccc(Cl)cc2)CC1)C1CCCN(c2ncnc3c2nc2n3CCCCC2)C1` (centres unmarked) it was -1.72%; in that of `CCN(CC)S(=O)(=O)c1ccc(N/N=C/c2ccc(O)cc2)nc1`, 12.2%. For the molecule `Cc1cc(NC(=O)COC(=O)C2=COCCO2)c([N+](=O)[O-])cc1C`, the “hERG current change (%, negative = inhibition) at 1uM” value came to 13.4%. For `Cl.O=C(c1ccco1)N1CCN(C(c2ccccc2Cl)c2nnnn2CC2CCCO2)CC1` (centres unmarked) the value was -2.23%; for `CCOc1cc(N2CCOCC2)c(OCC)cc1NC(=O)CSc1nc(N)cc(=O)[nH]1`, 9.65%; for `COc1cccc(C(=O)Nc2nnc(S(=O)(=O)N(C)c3ccccc3)s2)c1`, 12.3%. In the case of `O=C(c1cc(S(=O)(=O)N2CCOCC2)c(Cl)cc1Cl)N1CCCCC1` it was 6.67%; in that of `CCc1ccc(NC(=O)NCCN2CCN(c3ccc(OC)cc3)CC2)cc1`, 5.61%. For `CCCCCC(=O)Nc1ccc2oc(-c3cccnc3)nc2c1` the value was 0.166%; for `O=C(NCCN1CCOCC1)c1ccc2ccccc2n1`, 14.7%; for `Cc1ccnc2nc(C(=O)NC3=NCCS3)nn12`, 12.6%. In the case of `S=C1N(c2ccccc2)CN(CCN2CCOCC2)CN1c1ccccc1`, the “hERG current change (%, negative = inhibition) at 1uM” value amounted to 14.5%.

For the molecule `Cc1cccc(C(=O)OCCN2CCOCC2)c1.Cl`, the “hERG current change (%, negative = inhibition) at 1uM” value is reported as 7.93%. On to `O=C(Nc1ccccc1)c1ccc(NC2CCCCC2)c(S(=O)(=O)N2CCOCC2)c1`, for which the “hERG current change (%, negative = inhibition) at 1uM” value came out at 3.65%.

For the molecule `CN1C2CCC1CC(NC(=O)c1ccc([N+](=O)[O-])cc1)C2` (centres unmarked), the “hERG current change (%, negative = inhibition) at 1uM” value was 12.1%. Regarding `O=C(/C=C/c1ccc(Cl)cc1Cl)Nc1cccc(S(=O)(=O)NC2=NCCC2)c1`, the “hERG current change (%, negative = inhibition) at 1uM” value came to 8.84%. For `O=C1C(C=NCc2ccncc2)=C(O)c2ccccc21` the value was 1.6%; for `Cc1ccc(NC(=O)c2ccc(CNS(=O)(=O)c3cccc(C(F)(F)F)c3)cc2)cc1`, -1.03%; for `O=C(CSc1n[nH]c(-c2ccncc2)n1)Nc1ccc(Br)cc1`, 7.77%. In the case of `CCC(C)[C@@H](CN)NCC1(c2ccccc2)CC1` (some centres unmarked), the “hERG current change (%, negative = inhibition) at 1uM” value is given as 15.3%. As to `COc1cc(C2C3=C(CCCC3=O)Nc3[nH]n(-c4ccccc4)c(=O)c32)ccc1OC(C)=O` (centres unmarked), the “hERG current change (%, negative = inhibition) at 1uM” value is given as 11.5%. For `CC(=O)C1=C(O)C(=O)N(c2ccc(C(=O)O)cc2)C1c1ccccc1` (centres unmarked) the value was 12.6%. Turning to `COc1cc(OC)cc(C(=O)N2CCC(C(=O)N3CCOCC3)CC2)c1`, the “hERG current change (%, negative = inhibition) at 1uM” value was found to be 14.2%. In the case of `Cc1cccc(OCC(=O)Nc2ccccc2-c2ccccc2)c1` it was 12.6%; in that of `O=C(CN1CCOCC1)Nc1ccc(OCc2ccccc2)cc1`, -4.54%; in that of `CC(C(=O)Nc1nncs1)N1C(=O)C2C3C=CC(C3)C2C1=O` (centres unmarked), 2.09%. In the case of `O=C(NNc1cc(C(F)(F)F)ccc1Cl)c1ccc(=O)[nH]c1` it was 15.8%. Take `O=C(CSc1nc2[nH]ncc2c(=O)n1-c1ccccc1Cl)N1CCCC1`: the “hERG current change (%, negative = inhibition) at 1uM” value turned out to be 7.64%. As to `Cc1c(C(=O)Nc2nnc(SCc3ccccc3Cl)s2)cccc1[N+](=O)[O-]`, the “hERG current change (%, negative = inhibition) at 1uM” value was determined as 17.4%.

As for `CNC(=O)/C(=C/c1ccc2c(c1)OCO2)NC(=O)c1ccc(Br)cc1`, the “hERG current change (%, negative = inhibition) at 1uM” value is listed as -20.3%. Consider `O=C(CN1C(=O)COc2ccccc21)NCCCN1CCOCC1`, for which the “hERG current change (%, negative = inhibition) at 1uM” value stood at 14.2%.

As to `CN(C)c1ccc(/C=C(\C#N)C(=O)c2ccccc2)cc1`, the “hERG current change (%, negative = inhibition) at 1uM” value turned out to be 10.1%. For `NC(=S)N/N=C/c1cc([N+](=O)[O-])ccc1Cl` the value was 12.6%. Take `COC(=O)c1cc(NC(=O)CC2C(=O)NCCN2C(=O)c2ccccc2)cc(C(=O)OC)c1` (centres unmarked): the “hERG current change (%, negative = inhibition) at 1uM” value was determined as 13.9%.
